Experimental data reported in PubChem BioAssay AID485344 (National Center for Advancing Translational Sciences (NCATS), 2010).
Among all 340,000 compounds or so, about 6,900 (2%) were called active. Cut-off read from the data, not from the text of the source: active = inhibition above about 30%; inactive = below that, where a call was filed. Only a part is listed here, and it is no random draw. Entries without a call were filed so in the source.

target: D(2) dopamine receptor (Homo sapiens) (UniProt P14416); assay: HTS Assay for Allosteric Antagonists of the Human D2 Dopamine Receptor: Primary Screen for Antagonists; settings: HEK293 TREx D2 cells, calcium flux, dopamine EC80; at 10 µM; stronger effect = higher value; note: 0% is about no effect
Chain of UniProt P14416 (P14416 whole entry, looked up): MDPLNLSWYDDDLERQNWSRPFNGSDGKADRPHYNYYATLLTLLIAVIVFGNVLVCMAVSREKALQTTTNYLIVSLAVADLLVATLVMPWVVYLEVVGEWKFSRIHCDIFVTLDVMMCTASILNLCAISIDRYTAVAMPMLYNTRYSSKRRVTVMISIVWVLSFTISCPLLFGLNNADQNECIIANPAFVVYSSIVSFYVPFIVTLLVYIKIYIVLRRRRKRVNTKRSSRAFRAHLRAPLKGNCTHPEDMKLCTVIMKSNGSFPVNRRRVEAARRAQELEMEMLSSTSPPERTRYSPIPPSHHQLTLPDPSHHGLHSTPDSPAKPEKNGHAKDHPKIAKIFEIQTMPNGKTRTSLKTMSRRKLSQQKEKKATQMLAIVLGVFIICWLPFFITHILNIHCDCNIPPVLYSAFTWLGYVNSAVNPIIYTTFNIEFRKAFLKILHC
Summary of the method: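 Tetracycline-induced HEK293 T-REx cells expressing D2 force-coupled to calcium signalling were dye-loaded, exposed to compound for 180 s, then challenged with an EC80 of dopamine; calcium flux was followed kinetically for a further 180 s.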

Compared with CCOC(=O)C1CCN(C(=O)c2cnn(-c3ccc(F)cc3)c2-n2cccc2)CC1, CCOC(=O)C1CCN(Cc2cn3c(-c4ccc(OC)cc4)nnc3s2)CC1 is higher in inhibition: 0.835% for the first, 5.42% for the second.

Compared with CCOC(=O)c1[nH]c2c(c1Cc1ccccc1)C(=O)CC(c1ccc(C(C)(C)C)cc1)C2 (stereo not given), CCOc1ccc(NC(=O)c2sc(-n3nc(C)c(Cc4ccc(Cl)cc4)c3C)nc2C)cc1 is lower in inhibition: 16.3% for the first, -7.95% for the second.

First: Cc1ccc(Cn2c(CN3CCC(C(=O)O)CC3)cc3ccccc32)cc1
Second: Cc1ccc(/C=C/C(=O)Nc2ccc3nc(N4CCC(C)CC4)cc(C)c3c2)cc1
The inhibition of the first is lower: -3.62% for the first, -0.442% for the second.

First: CCc1ccc(NC(=O)CSc2nnc(CC)c(CC)n2)cc1
Second: CCc1cccc(C)c1NC(=O)CSc1nc2ccncc2[nH]1
The inhibition of the first is lower: -1.47% for the first, 0.074% for the second.

Going from CCN(CC)S(=O)(=O)c1cc(-c2ccc(=O)n(C(C)C(=O)Nc3cccc(C#N)c3)n2)ccc1C (stereo not given) to CCOc1ccc(C(=O)Nc2ccc3nc(N(CC)CC)cc(C)c3c2)cc1, the inhibition rises from -1.31% to 10.7%.

First: Cc1cc(C)cc(N(CC(=O)Nc2c(C)cc(C)cc2C)S(=O)(=O)c2c(C)nn(C)c2C)c1
Second: CCN(c1cccc(C)c1)S(=O)(=O)c1cc2c(cc1C)n(C)c(=O)c(=O)n2C
The inhibition of the first is higher: 9.29% for the first, -3.02% for the second.

Compared with COc1ccc(C(=O)Nc2nc3c(s2)Cc2c(Br)ccc(OC)c2-3)cc1OC, COc1ccc(CCNC(=O)c2ccc3c(c2)N=C(C)c2ccccc2S3)cc1OC is lower in inhibition: 3.46% for the first, -3.69% for the second.

Going from CCN(CC)CCCNC(=O)c1sc2nc3n(c(=O)c2c1C)CCCCC3 to CCN(CC)CCCNC(=O)c1ccc2c(c1)sc1nc(-c3ccc(C)cc3)cn12, the inhibition rises from -16.2% to 20.9%.

Compared with CN(CC(=O)Nc1ccc(F)cc1F)S(=O)(=O)c1cccc2nsnc12, Cc1cccc(NC(=O)CN(C)S(=O)(=O)c2ccc3c(c2)c(=O)n(C)c(=O)n3C)c1C is lower in inhibition: -5.16% for the first, -15.7% for the second.

Going from COc1ccc(-c2noc(CSc3nnc(Cc4ccccc4)n3-c3ccc(F)cc3)n2)cc1 to CCCc1cc(=O)[nH]c(SCc2nc(-c3ccc(OCC)cc3)no2)n1, the inhibition falls from 7.95% to -4.45%.

Going from CCOc1c(Cl)cc(CNc2ccc3[nH]c(=O)[nH]c3c2)cc1OC to COc1ccc(CCNS(=O)(=O)c2c(C)nc3sc(C)cn3c2=O)cc1OC, the inhibition falls from 9.5% to -6.71%.

First: COc1ccc(NC(=O)NC(C)c2c(-n3cccc3)sc(C)c2C)cc1OC (stereo not given)
Second: COc1cc(-c2cc(OC)c3c(C)oc(C)c3c(=O)c2)ccc1OC(=O)c1cccc(C)c1
The inhibition of the first is lower: -8.96% for the first, 4.44% for the second.

First: CCCCOc1ccc(C(=O)Nc2cc(-c3cn4cccnc4n3)ccc2OC)cc1
Second: COc1ccc(-c2nc3ccccc3o2)cc1NC(=O)c1cccnc1
The inhibition of the first is higher: -18.8% for the first, -26.1% for the second.

Compared with Cc1cc(Nc2cccc(C(=O)O)c2)n2nc(C)nc2n1, Cc1ccc(C(=O)Nc2c(C(=O)Nc3ccc(C)c(C)c3)sc3nc(C)cc(C)c23)cc1 is higher in inhibition: -27.5% for the first, 10.6% for the second.

Compared with CCc1cccc(NC(=O)c2ccc3c(c2)N(Cc2cccc(Cl)c2)C(=O)c2ccccc2S3=O)c1 (stereo not given), Cn1c(=O)oc2cc(S(=O)(=O)NC(Cc3ccccc3)C(=O)Nc3ccc(F)c(Cl)c3)ccc21 (stereo not given) is higher in inhibition: 3.42% for the first, 4.05% for the second.

Compared with CCOC(=O)c1c(-c2ccc(C)cc2)csc1NC(=O)c1cc(-c2ccc(OC)cc2)on1, Cc1ccc(OCCCCn2c(-c3ccc(Cl)cc3)nc3ccccc3c2=O)cc1 is lower in inhibition: 13.3% for the first, 10.9% for the second.

Compared with Cc1cccc(N(C)C(=O)CCS(=O)(=O)c2ccc3c(c2)n(C)c(=O)c(=O)n3C)c1, CCOc1cccc2sc(NC(=O)c3ccc(S(=O)(=O)N4CCCCC4C)cc3)nc12 (stereo not given) is higher in inhibition: -3.63% for the first, 19.5% for the second.

First: CCOC(=O)c1c(C)[nH]c(C)c1S(=O)(=O)N1CCN(c2cc(Cl)ccc2C)CC1
Second: O=C(c1cc(-c2ccc(Cl)cc2)n[nH]1)N1CCN(S(=O)(=O)c2ccc(Br)s2)CC1
The inhibition of the first is lower: -22.1% for the first, -1.04% for the second.

Compared with Clc1ccccc1Cn1c(-c2cccs2)nc2ccccc21, Cc1cccc(NC(=O)c2cn(-c3ccccc3)nc2-c2ccccc2)c1C is higher in inhibition: 3.86% for the first, 11.1% for the second.

Compared with Cc1nnc(NC(=O)c2nc(SC(C)C)ncc2Cl)s1, CCOC(=O)c1c(C)oc2nc(C)nc(NCCc3ccc(Cl)cc3)c12 is higher in inhibition: -0.831% for the first, 3.38% for the second.

First: Cc1cc(N2CCC(C(=O)Nc3ccc(F)cc3F)CC2)n2nc(C)c(-c3ccc(Cl)cc3)c2n1
Second: COc1ccc(NC(=O)C2CCN(c3cc(C)nc4c(-c5ccc(Cl)cc5)c(C)nn34)CC2)cc1
The inhibition of the first is higher: 24% for the first, -18.2% for the second.

Going from COc1cccc(NS(=O)(=O)c2ccc3[nH]cc(C(=O)NC(C)c4ccccc4)c(=O)c3c2)c1 (stereo not given) to Cc1ccc(C2C=C(c3ccccc3)Nc3nc(NS(C)(=O)=O)nn32)cc1 (stereo not given), the inhibition falls from 9.3% to -12.2%.

First: Cc1ccccc1CN1CCCN(CC(=O)Nc2ccc(F)cc2)S1(=O)=O
Second: CC(C)c1ccc(NC(=O)Cn2nnc(C(=O)NCc3ccc4c(c3)OCO4)c2N)cc1
The inhibition of the first is higher: 2.04% for the first, -4.27% for the second.

Compared with Cc1ccc(-c2noc(-c3ccc(N4CCCC4)c([N+](=O)[O-])c3)n2)cc1, Cc1c(-c2ccccc2)c(=O)oc2c(CN3CCOCC3)c(O)ccc12 is lower in inhibition: 6.87% for the first, 1.32% for the second.

Compared with CCOc1ccc(C2C(C(=O)Nc3ccc(OC)cc3)=C(C)Nc3nc(CCCO)nn32)cc1 (stereo not given), Cc1ccc(CNC(=O)c2ccc3c(c2)c(C)c(C)n3Cc2ccc(Cl)cc2)o1 is lower in inhibition: 8.8% for the first, 7.41% for the second.

Work on Cc1nn(S(=O)(=O)c2ccc(F)cc2)c(C)c1S(=O)(=O)N1CCCCCC1 yielded an inhibition of -12.3%.

COc1ccc(-n2c(SCC(=O)N3CCOCC3)nc(O)c(Cc3ccccc3)c2=O)cc1 was tested, and the inhibition was active: 42.9%.
With COc1ccc(OC)c(CN2CCN(CCc3ccccc3)C(CCO)C2)c1 (stereo not given) the inhibition was active: 44.9%.
In the case of CCOC(=O)C1=C(CC)Nc2ccccc2N=C1NC(=O)Nc1ccccc1OC, the inhibition is reported as active: 50.9%.
In the case of CCCCN(C)CCCNC(=O)c1cn(C)c2ccc(S(=O)(=O)N(C)C3CCCCC3)cc2c1=O, the inhibition is reported as active: 34.2%.
In the case of O=C(CN1CCc2cc3c(cc2C1)OCCCO3)Nc1c(F)cccc1F, the inhibition is reported as active: 41.5%.
For c1cc2c(cc1C1=Nn3c(nnc3C3CCCCC3)SC1)OCO2, the inhibition was active: 33.3%.
CCCCSc1[nH]c(=O)c(C(=O)OCC)cc1C#N was tested, and the inhibition was active: 30.2%.
O=C1Nc2cc(C(=O)N3CCOCC3)ccc2S/C1=C\c1ccccc1 was tested, and the inhibition was active: 47.4%.
For O=C(NCc1ccccc1CN1CCCC1)c1cccc(S(=O)(=O)N2CCOCC2)c1, the inhibition was active: 49.4%.
